Source: the supplement of paper PMC3334620
The full ranking holds about 33,000 sequences; the median of “E-score (-0.5 to 0.5)” is about -0.054, and the highest 2% start at about 0.39. The list shows a part of the results.

target: Ylr278c (UniProt Q05854); assay: PBM E-score (8-mer binding enrichment) (E-score (-0.5 to 0.5)); higher = stronger / more preferred TF binding; most listed sequences are background and not binding sites; conditions: protein concentration: 200 nM; construct: GST-DNA-binding domain
Summary of the method: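 Universal all-10-mer Agilent arrays, double-stranded by primer extension on fresh or once-stripped slides, were probed with about 100-200 nM GST-tagged yeast transcription factors made by PURExpress. Fluorescent anti-GST detected bound protein, and masliner normalised the scans. E-scores from the Universal PBM Analysis Suite were given to each ungapped eight-base word pooled with its reverse complement.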

Sequence	PBM E-score
TTCATGAA	-0.17
GCGTGTGA	0.0418
CAGCGCGA	-0.182
CGCTACCG	0.208
AGCATAGC	-0.317
GGTCTCTA	-0.21
GGAGTAAC	0.274
AGCGATCA	-0.00061
AAAGCAGG	-0.07
GCATCCCA	-0.0799
GGTTGGTA	-0.0346
CATGGGGG	-0.172
TGCCGGCA	0.347
GCCCCGAA	0.301
CTATGATA	-0.155
CAGCTCTA	-0.124
AAACGGGA	0.304
AAAAATCG	-0.0603
AAGCTCCT	-0.0423
AAGTTCCG	0.42
GTGCAGGA	-0.185
TACTGAGA	-0.179
ACTTCTTA	0.0214
GTCGTTTA	0.00681
ACCCCAGT	0.161

Sequence	PBM E-score
AGATGATG	-0.0971
CAGGAAGG	-0.232
CTTCCATA	-0.266
CAGGTAGA	-0.0589
GGCCGTTA	0.127
GGGGGGCA	-0.37
TGACCCCA	-0.0702
GGCTAGCC	-0.226
AGTTAACG	-0.107
ACGGGCTG	-0.0606
TCGGTAGA	0.094
CAGTCTAA	-0.108
AAAATCTT	-0.102
AGAGGGAG	-0.197
ACCGGCAC	0.297
ACAGTGAG	-0.301
CTTAGACC	-0.143
AATTACCT	-0.0492
GGGCATTA	-0.0729
CTTAGCTC	0.119
CCTTCCAC	-0.187
GCTCACTA	-0.239
ACTTGTAC	-0.137
CCTCTTCC	-0.142
GACGAACC	0.0713

Sequence	PBM E-score
ATGGTAGC	-0.0197
AGGGGCTC	-0.194
TACCCTCA	-0.164
GCCCAGTA	-0.0556
AAGGTACC	-0.103
GTTACAAA	-0.0452
CCAGCGCA	0.0176
TAAGCGTA	-0.2
CGCGGTTC	0.162
AGGAGGCG	0.0553
GAGGCACA	-0.0636
CTATCGGC	0.239
CGTTGTGC	0.0945
AAGGCGAC	-0.0783
ACGGCAGT	-0.0906
CAGCTGAC	-0.00477
CACACTCG	-0.0438
CACGTCGC	0.0696
GCAGGAGC	-0.194
ATCCACAA	-0.156
GAGATATA	0.0511
ATTCCTTC	-0.00233
ACGAATAC	-0.157
AGTTGTGA	-0.0452
AATACGGC	0.107

Sequence	PBM E-score
GGAAACAA	0.0827
CCAAACAA	0.0214
ACACCATG	-0.248
CCGCCCGC	0.349
ATTATTGC	0.0912
CCTTGTAA	-0.099
AAGCCTCG	-0.00794
GATCAGAC	-0.172
TAGATTAA	0.00357
CCCCTGTA	-0.019
CAATCAAA	-0.00275
AACAATCC	0.161
ACACTAAT	-0.105
CGGCTGTC	0.0899
CCCGGCTC	0.219
CCTTCGAA	0.155
CGAGCGTC	-0.107
AGACTCTA	-0.302
CTTGTGGC	-0.229
ATTATAAT	0.104
CACTTAAC	-0.162
GTACGTTA	0.0478
ACCTCCGT	0.383
ACAATCAG	-0.177
CACGGCAC	-0.0251

Sequence	PBM E-score
GGGTCTTA	-0.0338
ACCAACTC	-0.047
ACGCCAGT	-0.211
CTTATACC	-0.0532
AGTCTAAA	-0.213
CCAGAAAC	0.0237
GGGGCCCC	0.24
CTTCCGAC	0.273
GTTTCGTA	0.0178
AAGTTGCA	-0.162
AAGCGGCA	0.24
GAAGCAAA	-0.266
CGGGGCGA	0.261
AGTACGAT	-0.116
CAGTAGGC	-0.254
AACCCAAG	-0.101
CCGCGCGA	0.216
GTTATATA	-0.0729
TGTACGAA	-0.0825
CTCGAGAC	0.00037
ATCAACTC	-0.0566
AGGCAGTG	-0.195
ACCTCTCG	-0.122
ATGTAGCG	-0.0307
ATAGAGGA	-0.313

Sequence	PBM E-score
AGGCCGCC	0.138
ACCGGCCA	0.169
GAGATCCC	0.221
AATGGATC	-0.0163
GAGATAAA	0.104
ACCTCAGA	-0.0802
TGTGGTAA	-0.0151
AGTCACAT	-0.203
CTCACAAC	-0.0413
TAATCGGA	0.417
ATCCTCGA	-0.17
CGTTAAGA	-0.157
CGCGAGAG	0.0707
ACGGAAAA	0.346
AACCGGAC	0.414
ATGGTCAC	-0.0597
ATCCCAGA	-0.238
CCACAGAG	-0.25
TCTATGAA	-0.214
CCAAAACA	-0.244
ACCTGCCA	-0.169
GGCTGCAA	0.0552
TGCTTCAA	-0.131
ACATTCCA	-0.0927
AATAGAGT	-0.299

Sequence	PBM E-score
CAAGTGAG	-0.263
CAATGTAA	-0.0302
TAAAACGA	-0.2
ATGTACCC	-0.103
ACAACCAG	-0.174
AAAACCGA	0.236
AGCAGGGA	-0.141
ATTAATCA	-0.0639
TCATGACA	-0.0511
CCTGAAGA	-0.0995
GAACGACC	-0.189
TCCCGTCA	0.139
CTCCACAG	-0.271
AATGTCTG	-0.0409
AATCGAGG	-0.0146
CGCGATGA	0.0922
GCGTCGAA	-0.0135
CCTGCGAA	-0.0352
CAGCAGAA	-0.0912
CCCATCCC	-0.0544
CTAACTAG	0.00403
CTACACGA	-0.136
